Converted amounts (≈) assume the structure as drawn.
Test system: HRV type 1A
Assay: Inhibition of viral cytopathic effect (CPE), HRV type 1A in MRC-5 cells
Type: cell-based
Conditions: Human rhinovirus sp., HRV1A, MRC5, Table 7, MRC-5 cells infected with HRV type 1A

CSc1nc2ccc(OCCC3CCN(c4ccc(C)nn4)CC3)cc2o1 [Compound 4, 6-{2-[1-(6-Methyl-3-pyridazinyl)-4-piperidinyl]ethoxy}-2-methylthiobenzoxazole]
IC50: 6 ng/mL (≈ 0.0156 µM)
